Experiment [1] has as its target T1, human NTCP (Homo sapiens, UniProt Q14973).
T1 sequence (Q14973 1-349): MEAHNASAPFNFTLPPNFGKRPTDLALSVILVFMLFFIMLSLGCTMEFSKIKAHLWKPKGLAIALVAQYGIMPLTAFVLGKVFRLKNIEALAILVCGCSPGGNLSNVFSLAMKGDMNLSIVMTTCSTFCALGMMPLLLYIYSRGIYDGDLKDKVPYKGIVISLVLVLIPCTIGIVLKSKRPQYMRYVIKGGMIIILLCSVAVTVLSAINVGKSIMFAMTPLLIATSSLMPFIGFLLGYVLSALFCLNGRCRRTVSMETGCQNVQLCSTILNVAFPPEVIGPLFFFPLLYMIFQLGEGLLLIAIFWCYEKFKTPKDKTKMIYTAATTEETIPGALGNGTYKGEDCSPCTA
Kind of experiment: Screening taurocholate uptake assay (96-well, [14C]taurocholate, 10 µM drug). The following applies: for remaining activity at 10 µM: 10 min, read-out: %NTCP activity.

Experiment [2] has as its target T1, human NTCP. Kind of experiment: Screening fluorescent competitive Myrcludex B-FITC binding assay (96-well, 10 µM drug).
The mark [3] stands for this setting: 0.5 h, read-out: %NTCP binding, Prestwick library screen, Myrcludex B-FITC binding, 10 µM drug.
Where [4] appears, read: screen, 10 µM drug, Myrcludex B-FITC binding.
The mark [5] stands for this setting: Prestwick library screen, 10 µM drug, Myrcludex B-FITC binding.
Setting [6] is: screen, 10 µM drug, [14C]taurocholate uptake.

Counter-ions that a name gives are not always drawn. Like-named read-outs stand apart in the source and are kept apart here.

`C=CCC1(CC(C)C)C(=O)NC(=O)NC1=O` [Butalbital]: the remaining activity at 10 µM in experiment [1] came out at 27%; in experiment [2] (0.5 h, read-out: %NTCP binding) it was 74.4%.
The like results for `CCCCOC(=O)c1ccc(N)cc1` [Butamben] were, in that order, 122% and 106%.
Regarding `CN(Cc1ccc(C(C)(C)C)cc1)Cc1cccc2ccccc12` [Butenafine Hydrochloride], the remaining activity at 10 µM stood at 123% in experiment [1] and 87.9% in experiment [2] (0.5 h, read-out: %NTCP binding).
In the case of `CCCCOC(=O)c1ccc(O)cc1` [Butylparaben], the remaining activity at 10 µM in experiment [1] is 100%; in experiment [2] (setting [3]) it was 119%.
Consider `CCCC[N+]1(C)[C@@H]2C[C@@H](OC(=O)[C@H](CO)c3ccccc3)C[C@H]1[C@@H]1O[C@@H]12.[Br-]` (stereo partly drawn) [Butylscopolammonium (n-) bromide], for which the “%NTCP activity” value in experiment [1] was 85.5872%. The “%NTCP binding” value in experiment [2] (setting [4]) is reported as 77.9454%.
Turning to `Cn1c(=O)c2c(ncn2C)n(C)c1=O` [Caffeine], the remaining activity at 10 µM turned out to be 64.7% in experiment [1] and 76.3% in experiment [2] (0.5 h, read-out: %NTCP binding).
As to `CC[C@@]1(O)C(=O)OCc2c1cc1n(c2=O)Cc2cc3ccccc3nc2-1` [Camptothecine (S,+)], the “%NTCP activity” value in experiment [1] (Prestwick library screen, 10 µM drug, [14C]taurocholate uptake) was determined as 123.65%. In addition, the “%NTCP binding” value in experiment [2] (setting [5]) is given as 63.5163%.
With `CCN(CC)CCNC(C(=O)OCCC(C)C)c1ccccc1.Cl.Cl` (stereo not drawn) [Camylofine chlorhydrate], the “%NTCP activity” value in experiment [1] was found to be 107.759%. In addition, the “%NTCP binding” value in experiment [2] (setting [5]) is 83.2082%.
For the compound `CCOc1nc2cccc(C(=O)O)c2n1Cc1ccc(-c2ccccc2-c2nnn[nH]2)cc1` [Candesartan], the remaining activity at 10 µM in experiment [1] is 77.4%; in experiment [2] (0.5 h, read-out: %NTCP binding) it was 117%.
`C[C@]12CCC(=O)C=C1C=C[C@@H]1[C@@H]2CC[C@@]2(C)[C@H]1CC[C@@]2(O)CCC(=O)[O-].[K+]` [Canrenoic acid potassium salt]: the “%NTCP activity” value in experiment [1] (Prestwick library screen, [14C]taurocholate uptake, 10 µM drug) was 87.765%. Moreover, the “%NTCP binding” value in experiment [2] (Prestwick library screen, Myrcludex B-FITC binding, 10 µM drug) is on record as 87.9445%.
On to `C[C@]12CCC(=O)C=C1C=C[C@@H]1[C@@H]2CC[C@@]2(C)[C@H]1CC[C@@]21CCC(=O)O1` [Canrenone], for which the remaining activity at 10 µM turned out to be 52.4% in experiment [1] and 109% in experiment [2] (0.5 h, read-out: %NTCP binding).
The matching figures for `C[N+](C)(C)CCOC(N)=O` [Carbachol]: 116% and 71.1%.
Turning to `COC(=O)N/N=C/c1c[n+]([O-])c2ccccc2[n+]1[O-]` [Carbadox], the remaining activity at 10 µM in experiment [1] was 128%; in experiment [2] (0.5 h, read-out: %NTCP binding), 82.4%.
The like results for `NC(=O)N1c2ccccc2C=Cc2ccccc21` [Carbamazepine] were, in that order, 144% and 104%.
The like results for `CCN(CC)CCOCCOC(=O)C1(c2ccccc2)CCCC1` [Carbetapentane citrate] were, in that order, 85.8% and 76.4%.
The like results for `C[C@@](Cc1ccc(O)c(O)c1)(NN)C(=O)O` [Carbidopa] were, in that order, 130% and 80.1%.
As to `CN(C)CCOC(c1ccc(Cl)cc1)c1ccccn1.O=C(O)/C=C\C(=O)O` (stereo not drawn) [Carbinoxamine maleate salt], the “%NTCP activity” value in experiment [1] (setting [6]) turned out to be 105.296%. Also, the “%NTCP binding” value in experiment [2] (setting [4]) worked out at 89.9614%.
Consider `CCCC(C)(COC(N)=O)COC(=O)NC(C)C` (stereo not drawn) [Carisoprodol], for which the results for the remaining activity at 10 µM in experiment [1] and in experiment [2] (setting [3]) were 34.4% and 104%, respectively.
On to `CCCCCCNC(=O)n1cc(F)c(=O)[nH]c1=O` [Carmofur], for which the remaining activity at 10 µM in experiment [1] was 82%; in experiment [2] (0.5 h, read-out: %NTCP binding) it was 71.7%.
The like results for `CC(C(=O)O)c1ccc2c(c1)[nH]c1ccc(Cl)cc12` (stereo not drawn) [Carprofen] were, in that order, 58% and 118%.
The matching figures for `CC(C)(C)NCC(O)COc1cccc2c1CCC(=O)N2` (stereo not drawn) [Carteolol hydrochloride]: 46.6% and 46.2%.
With `COc1ccccc1OCCNCC(O)COc1cccc2[nH]c3ccccc3c12` (stereo not drawn) [Carvedilol], the remaining activity at 10 µM was 90.3% in experiment [1] and 59.1% in experiment [2] (0.5 h, read-out: %NTCP binding).
As for `CCC1=C[C@@H]2CN3CCc4c([nH]c5ccccc45)[C@@](C(=O)OC)(C2)[C@@H]13` [Catharanthine], in experiment [1], the “%NTCP activity” value is on record as 87.0224%. In addition, the “%NTCP binding” value in experiment [2] (setting [4]) stood at 75.083%.
For the compound `N[C@@H](C(=O)N[C@@H]1C(=O)N2C(C(=O)O)=C(Cl)CS[C@H]12)c1ccccc1.O` [Cefaclor hydrate], in experiment [1] (setting [6]), the “%NTCP activity” value was found to be 50.6241%. Further, in experiment [2] (setting [4]), the “%NTCP binding” value is recorded as 77.3075%.
Turning to `CC1=C(C(=O)O)N2C(=O)[C@@H](NC(=O)[C@H](N)c3ccc(O)cc3)[C@H]2SC1` [Cefadroxil], the remaining activity at 10 µM worked out at 43.2% in experiment [1] and 73% in experiment [2] (0.5 h, read-out: %NTCP binding).
For the compound `C=CC1=C(C(=O)O)N2C(=O)[C@@H](NC(=O)/C(=N\O)c3csc(N)n3)[C@H]2SC1` [Cefdinir], the remaining activity at 10 µM in experiment [1] worked out at 92%; in experiment [2] (0.5 h, read-out: %NTCP binding), 114%.
For `NCc1ccccc1CC(=O)N[C@@H]1C(=O)N2C(C(=O)O)=C(CSc3nnnn3CC(=O)O)CS[C@H]12` [Ceforanide], the remaining activity at 10 µM in experiment [1] came to 66.8%; in experiment [2] (0.5 h, read-out: %NTCP binding), 60.6%.
As to `CO/N=C(\C(=O)N[C@@H]1C(=O)N2C(C(=O)O)=C(COC(C)=O)CS[C@H]12)c1csc(N)n1` [Cefotaxime sodium salt], the remaining activity at 10 µM in experiment [1] came out at 114%; in experiment [2] (0.5 h, read-out: %NTCP binding), 73.6%.
On to `CO[C@@]1(NC(=O)C2SC(=C(C(N)=O)C(=O)O)S2)C(=O)N2C(C(=O)O)=C(CSc3nnnn3C)CS[C@@H]21` (stereo partly drawn) [Cefotetan], for which the remaining activity at 10 µM in experiment [1] came to 79.2%; in experiment [2] (0.5 h, read-out: %NTCP binding), 53.1%.
On to `CO[C@@]1(NC(=O)Cc2cccs2)C(=O)N2C(C(=O)O)=C(COC(N)=O)CS[C@@H]21` [Cefoxitin sodium salt], for which the remaining activity at 10 µM in experiment [1] came to 96.9%; in experiment [2] (0.5 h, read-out: %NTCP binding), 111%.
The matching figures for `COCC1=C(C(=O)OC(C)OC(=O)OC(C)C)N2C(=O)[C@@H](NC(=O)/C(=N\OC)c3csc(N)n3)[C@H]2SC1` (stereo partly drawn) [Cefpodoxime proxetil]: 109% and 40.4%.
Take `CC=CC1=C(C(=O)O)N2C(=O)[C@@H](NC(=O)[C@H](N)c3ccc(O)cc3)[C@H]2SC1` [Cefprozil]: the “%NTCP activity” value in experiment [1] (setting [6]) stood at 129.621%. Also, the “%NTCP binding” value in experiment [2] (setting [4]) is listed as 49.2677%.
As to `NC(=O)c1cc[n+](CC2=C(C(=O)O)N3C(=O)[C@@H](NC(=O)[C@@H](c4ccccc4)S(=O)(=O)[O-])[C@H]3SC2)cc1` [Cefsulodin sodium salt], the remaining activity at 10 µM in experiment [1] came to 91.7%; in experiment [2] (0.5 h, read-out: %NTCP binding), 115%.
The like results for `CC(C)(O/N=C(\C(=O)N[C@@H]1C(=O)N2C(C(=O)[O-])=C(C[n+]3ccccc3)CS[C@H]12)c1csc(N)n1)C(=O)O` [Ceftazidime pentahydrate] were, in that order, 35.8% and 75.7%.
The matching figures for `Nc1nc(/C(=C/CC(=O)O)C(=O)N[C@@H]2C(=O)N3C(C(=O)O)=CCS[C@H]23)cs1` [Ceftibuten]: 124% and 83.9%.
The like results for `CO/N=C(\C(=O)N[C@@H]1C(=O)N2C(C(=O)OC(C)OC(C)=O)=C(COC(N)=O)CS[C@H]12)c1ccco1` (stereo partly drawn) [Cefuroxime axetil] were, in that order, 80.5% and 73%.
Turning to `CO/N=C(\C(=O)N[C@@H]1C(=O)N2C(C(=O)O)=C(COC(N)=O)CS[C@H]12)c1ccco1` [Cefuroxime sodium salt], the remaining activity at 10 µM in experiment [1] amounted to 133%; in experiment [2] (0.5 h, read-out: %NTCP binding), 70.6%.
The like results for `Cc1ccc(-c2cc(C(F)(F)F)nn2-c2ccc(S(N)(=O)=O)cc2)cc1` [Celecoxib] were, in that order, 66.1% and 106%.
The matching figures for `CCN(CC)C(=O)Nc1ccc(OCC(O)CNC(C)(C)C)c(C(C)=O)c1` (stereo not drawn) [Celiprolol HCl]: 128% and 92.1%.
As to `CC(=O)OCC1=C(C(=O)O)N2C(=O)[C@@H](N)[C@H]2SC1` [Cephalosporanic acid, 7-amino], the “%NTCP activity” value in experiment [1] stood at 42.4571%. The “%NTCP binding” value in experiment [2] (setting [5]) is 88.3299%.
`CC(=O)OCC1=C(C(=O)O)N2C(=O)[C@@H](NC(=O)Cc3cccs3)[C@H]2SC1` [Cephalothin sodium salt]: the remaining activity at 10 µM in experiment [1] was 126%; in experiment [2] (0.5 h, read-out: %NTCP binding) it was 76.7%.
The like results for `O=C(O)COCCN1CCN(C(c2ccccc2)c2ccc(Cl)cc2)CC1` (stereo not drawn) [Cetirizine dihydrochloride] were, in that order, 64.3% and 76.3%.
The like results for `O=C(N[C@H](CO)[C@H](O)c1ccc([N+](=O)[O-])cc1)C(Cl)Cl` [Chloramphenicol] were, in that order, 138% and 106%.
In the case of `CN1CCN(C(c2ccccc2)c2ccc(Cl)cc2)CC1` (stereo not drawn) [Chlorcyclizine hydrochloride], the remaining activity at 10 µM in experiment [1] was 117%; in experiment [2] (0.5 h, read-out: %NTCP binding), 98.2%.
For the compound `CN1C(=O)CCS(=O)(=O)C1c1ccc(Cl)cc1` (stereo not drawn) [Chlormezanone], the remaining activity at 10 µM in experiment [1] was found to be 65.8%; in experiment [2] (0.5 h, read-out: %NTCP binding, Prestwick library screen, 10 µM drug, Myrcludex B-FITC binding) it was 66.8%.

The record behind these values is publication PMC5681660, “Reduced hepatitis B and D viral entry using clinically applied drugs as novel inhibitors of the bile acid transporter NTCP” (Scientific Reports, 2017).
